According to the supplement of paper PMC12067230:
This is a noisy data set.

Test: amyloid nucleation score relative to library mode (yeast Sup35 reporter selection) (log enrichment difference); higher = more amyloid nucleation; sequences are the first 22 residues of the Bri2 peptide extended by up to 12 random residues
Conditions: random library (experiment): 1;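 active = nucleation score significantly above 0 at FDR 0.05; inactive = not significantly above 0 or absent from output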
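Note: [psi-pin-] Saccharomyces cerevisiae expressing SupN fusions, induced by 100 µM Cu2SO4, selected 7 d at 30 °C without adenine and uracil, scored by deep sequencing of output versus input.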

Q: Which amyloid nucleation score does the source give for EASNCFAIRHFENKFAVETLICPNCATNWSVREA here?
A: inactive

Q: For EASNCFAIRHFENKFAVETLICPNGP, which amyloid nucleation score is on record?
A: inactive

Q: Which amyloid nucleation score does the source give for EASNCFAIRHFENKFAVETLICPNGTMMATIRVS here?
A: inactive

Q: Which amyloid nucleation score does the source give for EASNCFAIRHFENKFAVETLICPNHCRSGSCQYI here?
A: inactive

Q: For EASNCFAIRHFENKFAVETLICPNLLVFDKSARH, which amyloid nucleation score is on record?
A: 5.01

Q: With EASNCFAIRHFENKFAVETLICPNNIVYMSCSIC as the sequence, how does the amyloid nucleation score read?
A: 6.8

Q: With EASNCFAIRHFENKFAVETLICPNRLGALPCLWG as the sequence, how does the amyloid nucleation score read?
A: 2.75

Q: Which amyloid nucleation score does the source give for EASNCFAIRHFENKFAVETLICPNRSRTVWRHRR here?
A: inactive

Q: Which amyloid nucleation score does the source give for EASNCFAIRHFENKFAVETLICPNSLHAFWSFSY here?
A: inactive

Q: Which amyloid nucleation score does the source give for EASNCFAIRHFENKFAVETLICPPARGLAVSRLC here?
A: inactive

Q: For EASNCFAIRHFENKFAVETLICPPGESSKNNEQG, which amyloid nucleation score is on record?
A: inactive

Q: For EASNCFAIRHFENKFAVETLICPPK, which amyloid nucleation score is on record?
A: inactive

Q: Which amyloid nucleation score does the source give for EASNCFAIRHFENKFAVETLICPPLLSKEFLTPG here?
A: inactive

Q: For EASNCFAIRHFENKFAVETLICPPQDRDCLTDRH, which amyloid nucleation score is on record?
A: inactive

Q: With EASNCFAIRHFENKFAVETLICPPRFQTHMGSHW as the sequence, how does the amyloid nucleation score read?
A: 0.618

Q: Which amyloid nucleation score does the source give for EASNCFAIRHFENKFAVETLICPPTMRLLECYGA here?
A: inactive

Q: Which amyloid nucleation score does the source give for EASNCFAIRHFENKFAVETLICPQA here?
A: inactive

Q: For EASNCFAIRHFENKFAVETLICPQAQSLLVRGLV, which amyloid nucleation score is on record?
A: -0.469

Q: For EASNCFAIRHFENKFAVETLICPQCTMLYLVRSY, which amyloid nucleation score is on record?
A: inactive

Q: For EASNCFAIRHFENKFAVETLICPQESSQGSRNV, which amyloid nucleation score is on record?
A: -0.317

Q: With EASNCFAIRHFENKFAVETLICPQKLYTLLLATQ as the sequence, how does the amyloid nucleation score read?
A: -0.207

Q: Which amyloid nucleation score does the source give for EASNCFAIRHFENKFAVETLICPQKPAMTLDGMS here?
A: inactive

Q: For EASNCFAIRHFENKFAVETLICPQRIMSGSVICH, which amyloid nucleation score is on record?
A: inactive

Q: Which amyloid nucleation score does the source give for EASNCFAIRHFENKFAVETLICPQTE here?
A: inactive

Q: Which amyloid nucleation score does the source give for EASNCFAIRHFENKFAVETLICPQVWSFCTANRN here?
A: 7.54

Q: With EASNCFAIRHFENKFAVETLICPREVCRCRRMGW as the sequence, how does the amyloid nucleation score read?
A: 5.68

Q: For EASNCFAIRHFENKFAVETLICPRGRSCL, which amyloid nucleation score is on record?
A: inactive

Q: Which amyloid nucleation score does the source give for EASNCFAIRHFENKFAVETLICPRHRCVNSRQCS here?
A: -0.129

Q: For EASNCFAIRHFENKFAVETLICPRLHFLFYGSVS, which amyloid nucleation score is on record?
A: 3.93

Q: For EASNCFAIRHFENKFAVETLICPRLNSRHVRNRL, which amyloid nucleation score is on record?
A: inactive

Q: With EASNCFAIRHFENKFAVETLICPRPA as the sequence, how does the amyloid nucleation score read?
A: 0.435

Q: With EASNCFAIRHFENKFAVETLICPRPKGYEVQMAH as the sequence, how does the amyloid nucleation score read?
A: inactive

Q: With EASNCFAIRHFENKFAVETLICPRRLTLSVAVGL as the sequence, how does the amyloid nucleation score read?
A: inactive

Q: For EASNCFAIRHFENKFAVETLICPRSAAVTNVLAG, which amyloid nucleation score is on record?
A: 1.39

Q: For EASNCFAIRHFENKFAVETLICPRSIRTSGWDVV, which amyloid nucleation score is on record?
A: 0.341

Q: For EASNCFAIRHFENKFAVETLICPRSLV, which amyloid nucleation score is on record?
A: inactive

Q: For EASNCFAIRHFENKFAVETLICPRSTALTCFMVW, which amyloid nucleation score is on record?
A: inactive

Same assay, conditions: random library (experiment): 2

Q: With EASNCFAIRHFENKFAVETLICPNCTQFYLRRAN as the sequence, how does the amyloid nucleation score read?
A: inactive

Q: With EASNCFAIRHFENKFAVETLICPNESRGNVFVF as the sequence, how does the amyloid nucleation score read?
A: inactive

Q: Which amyloid nucleation score does the source give for EASNCFAIRHFENKFAVETLICPNGCNDSILAEE here?
A: 3.35

Q: For EASNCFAIRHFENKFAVETLICPNMSY, which amyloid nucleation score is on record?
A: inactive

Q: With EASNCFAIRHFENKFAVETLICPPCFNLASFTVE as the sequence, how does the amyloid nucleation score read?
A: inactive

Q: With EASNCFAIRHFENKFAVETLICPPCLS as the sequence, how does the amyloid nucleation score read?
A: inactive

Q: Which amyloid nucleation score does the source give for EASNCFAIRHFENKFAVETLICPPMGRWNTGRLA here?
A: inactive

Q: For EASNCFAIRHFENKFAVETLICPPREGWRVLVGL, which amyloid nucleation score is on record?
A: inactive

Q: For EASNCFAIRHFENKFAVETLICPPTHMDVLYIVS, which amyloid nucleation score is on record?
A: inactive

Q: With EASNCFAIRHFENKFAVETLICPQLSSKYLIMGI as the sequence, how does the amyloid nucleation score read?
A: inactive

Q: With EASNCFAIRHFENKFAVETLICPRFLYFVLSIWS as the sequence, how does the amyloid nucleation score read?
A: inactive

Q: With EASNCFAIRHFENKFAVETLICPRGTRRMRGSWS as the sequence, how does the amyloid nucleation score read?
A: inactive

Q: For EASNCFAIRHFENKFAVETLICPRKGYLLNTKVF, which amyloid nucleation score is on record?
A: inactive

Q: Which amyloid nucleation score does the source give for EASNCFAIRHFENKFAVETLICPRMESGHVRRCG here?
A: 0.462

Q: Which amyloid nucleation score does the source give for EASNCFAIRHFENKFAVETLICPRSSMCHEGL here?
A: inactive

Same assay, conditions: random library (experiment): 3

Q: With EASNCFAIRHFENKFAVETLICPNGLQLMSPAAR as the sequence, how does the amyloid nucleation score read?
A: inactive

Q: For EASNCFAIRHFENKFAVETLICPNGLQRFDVYY, which amyloid nucleation score is on record?
A: 7.94

Q: Which amyloid nucleation score does the source give for EASNCFAIRHFENKFAVETLICPNMFCYGVPIIC here?
A: inactive

Q: Which amyloid nucleation score does the source give for EASNCFAIRHFENKFAVETLICPNPDSITCTVRT here?
A: 3.39

Q: Which amyloid nucleation score does the source give for EASNCFAIRHFENKFAVETLICPNQCVCLSGRLR here?
A: 4.23

Q: Which amyloid nucleation score does the source give for EASNCFAIRHFENKFAVETLICPNRFTSSDRASI here?
A: inactive

Q: With EASNCFAIRHFENKFAVETLICPNVD as the sequence, how does the amyloid nucleation score read?
A: inactive

Q: Which amyloid nucleation score does the source give for EASNCFAIRHFENKFAVETLICPNYYRVAFLFMA here?
A: 4.28

Q: Which amyloid nucleation score does the source give for EASNCFAIRHFENKFAVETLICPPC here?
A: inactive

Q: For EASNCFAIRHFENKFAVETLICPPGGSYFTSKSR, which amyloid nucleation score is on record?
A: inactive

Q: With EASNCFAIRHFENKFAVETLICPPNKESPRNGHG as the sequence, how does the amyloid nucleation score read?
A: inactive

Q: Which amyloid nucleation score does the source give for EASNCFAIRHFENKFAVETLICPPQGWNLRLTQP here?
A: inactive

Q: For EASNCFAIRHFENKFAVETLICPPRMMVVEVVSV, which amyloid nucleation score is on record?
A: inactive

Q: Which amyloid nucleation score does the source give for EASNCFAIRHFENKFAVETLICPPVS here?
A: 4.14

Q: Which amyloid nucleation score does the source give for EASNCFAIRHFENKFAVETLICPPVWWGVASACR here?
A: inactive

Q: For EASNCFAIRHFENKFAVETLICPPWSGAREVARS, which amyloid nucleation score is on record?
A: 0.104

Q: For EASNCFAIRHFENKFAVETLICPPWWH, which amyloid nucleation score is on record?
A: 7.41

Q: With EASNCFAIRHFENKFAVETLICPQKGVGRNRSHR as the sequence, how does the amyloid nucleation score read?
A: inactive

Q: With EASNCFAIRHFENKFAVETLICPQKMRTWHRIGV as the sequence, how does the amyloid nucleation score read?
A: inactive

Q: For EASNCFAIRHFENKFAVETLICPQMRLQHCVGSQ, which amyloid nucleation score is on record?
A: inactive

Q: With EASNCFAIRHFENKFAVETLICPRACRNVARTVL as the sequence, how does the amyloid nucleation score read?
A: inactive

Q: For EASNCFAIRHFENKFAVETLICPRARRLGWLNVE, which amyloid nucleation score is on record?
A: inactive

Q: For EASNCFAIRHFENKFAVETLICPRASQRLCLHRL, which amyloid nucleation score is on record?
A: inactive

Q: With EASNCFAIRHFENKFAVETLICPRCLPDGKESYT as the sequence, how does the amyloid nucleation score read?
A: inactive

Q: Which amyloid nucleation score does the source give for EASNCFAIRHFENKFAVETLICPRCSLHLSVTFA here?
A: inactive

Q: For EASNCFAIRHFENKFAVETLICPRFR, which amyloid nucleation score is on record?
A: inactive

Q: With EASNCFAIRHFENKFAVETLICPRGRCVKSISVT as the sequence, how does the amyloid nucleation score read?
A: inactive

Q: For EASNCFAIRHFENKFAVETLICPRGTMWSCALGQ, which amyloid nucleation score is on record?
A: inactive

Q: For EASNCFAIRHFENKFAVETLICPRGVVLRSPVWH, which amyloid nucleation score is on record?
A: inactive

Q: For EASNCFAIRHFENKFAVETLICPRLTVGRGEMRP, which amyloid nucleation score is on record?
A: inactive

Q: For EASNCFAIRHFENKFAVETLICPRMGLNHWVCFF, which amyloid nucleation score is on record?
A: inactive

Q: Which amyloid nucleation score does the source give for EASNCFAIRHFENKFAVETLICPRRLAVPWAVRA here?
A: inactive

Q: Which amyloid nucleation score does the source give for EASNCFAIRHFENKFAVETLICPRRMCRFKICAN here?
A: inactive
